How the values were obtained:
Test in all cases: GST pull-down of 35S-labelled in vitro translated cyclin
[1] = biological target: T1, cyclin D1 (mouse, UniProt P25322 1-295)
T1 construct: 35S-labelled in vitro translation product in the pull-down; baculovirus product in Sf9 cells
Method: (§1) Because DMP1 interacted with cyclin D2 in yeast, the ability of a glutathione S-transferase (GST)-DMP1 fusion protein to bind D-type cyclins in vitro is examined. GST is fused to residues 176-761 of DMP1 (in lieu of GAL4 in the original cDNA clone), and the bacterially synthesized recombinant protein is incubated with [³⁵S]methionine-labeled D-type cyclins prepared by transcription and translation in vitro. As a positive control, GST-RB which can specifically bind D-type cyclins in this assay is used (15). Bound cyclins recovered on washed glutathione-Sepharose beads are analyzed by electrophoresis on denaturing gels. […] GST-DMP1 is less efficient than GST-RB in binding cyclins D2 and D3 (˜4-fold less binding), and under these conditions, an interaction with D1 is not detected (lanes 3, 7, 11). No labeled proteins bind to GST alone (lanes 4, 8, 12), and neither cyclin A nor cyclin E bind to GST-RB or to GST-DMP1. A cyclin D2 mutant disrupted in an amino-terminal Leu-X-Cys-X-Glu pentapeptide that is required for high efficiency GST-RB binding is not detectably compromised in its interaction with GST-DMP1 (negative data not shown); in agreement, DMP1 bears no homology to RB or to RB-related family members (p107 and p130).

[2] = biological target: T2, cyclin D2 (mouse, UniProt P30280 1-289)
T2 construct: 35S-labelled in vitro translation product in the pull-down; baculovirus product in Sf9 cells
T2 sequence (P30280 whole entry): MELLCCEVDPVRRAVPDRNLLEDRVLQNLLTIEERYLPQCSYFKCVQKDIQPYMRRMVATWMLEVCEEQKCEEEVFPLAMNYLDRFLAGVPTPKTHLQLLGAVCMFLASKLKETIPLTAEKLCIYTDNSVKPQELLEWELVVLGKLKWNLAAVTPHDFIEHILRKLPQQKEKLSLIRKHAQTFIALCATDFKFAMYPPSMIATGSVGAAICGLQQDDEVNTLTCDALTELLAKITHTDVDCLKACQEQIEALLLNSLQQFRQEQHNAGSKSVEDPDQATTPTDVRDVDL
Method: as §1

[3] = biological target: T3, cyclin D3 (mouse, UniProt P30282 1-292)
T3 construct: 35S-labelled in vitro translation product in the pull-down; baculovirus product in Sf9 cells
T3 sequence (looked up): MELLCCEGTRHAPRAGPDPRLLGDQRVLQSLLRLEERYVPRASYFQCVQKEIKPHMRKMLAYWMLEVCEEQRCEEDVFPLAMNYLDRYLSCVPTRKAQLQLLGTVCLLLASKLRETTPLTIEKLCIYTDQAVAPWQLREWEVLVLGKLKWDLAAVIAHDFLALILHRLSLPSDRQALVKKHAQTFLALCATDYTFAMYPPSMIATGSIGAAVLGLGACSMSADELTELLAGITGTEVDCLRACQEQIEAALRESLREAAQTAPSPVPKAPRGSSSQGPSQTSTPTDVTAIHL
Method: as §1

Measured: binding result

T1 sequence (P25322 whole entry): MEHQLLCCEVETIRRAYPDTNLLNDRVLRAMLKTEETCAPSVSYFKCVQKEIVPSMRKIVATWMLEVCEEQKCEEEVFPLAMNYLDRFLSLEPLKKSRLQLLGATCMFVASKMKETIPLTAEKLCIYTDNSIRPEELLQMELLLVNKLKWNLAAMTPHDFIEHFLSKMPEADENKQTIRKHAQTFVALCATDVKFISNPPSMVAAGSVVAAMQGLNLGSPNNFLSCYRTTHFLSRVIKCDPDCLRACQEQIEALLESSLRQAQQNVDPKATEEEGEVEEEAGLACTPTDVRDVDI

B1: GST alone (other)
chain: not shown
notes: Negative control; also called GST controls
no binding: all assays above

From patent publication US20030028002A1 (ST JUDE CHILDREN S RESEARCH HOSPITAL, published 2003)
